Measurements as given in article PMC12040169 (PLOS Biology, 2025).
Some of the results follow.

Tested on: T1, C. trachomatis L2/434/Bu expressing GFP (CTL2-GFP)
T1 construct: L2/434/Bu GFP intracellular growth in HeLa cells
Parameters: species or system HeLa; C. trachomatis total inclusion area by high-content imaging, normalised to DMSO
Settings: total inclusion area; 28.5 h, 10 µM; inhibitor
Outline: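 High-content imaging followed the bulk GFP/resorufin measurement: fixed, Hoechst-stained cells were scored for GFP inclusions and host nuclei per well. Total inclusion area and count served as growth proxies, nuclei number as the viability proxy. MIC calculation matched the bulk assay.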

Q: How did the “% of control remaining” value turn out when `CC(C)(C)NC(=O)Cn1nc(-c2cc3c(s2)CCC3)oc1=O` [CBK284714] was run?
A: 65.4562

Q: How did the “% of control remaining” value turn out when `N#CCCN(CCN1CCCC1)S(=O)(=O)c1cccc2nsnc12` [CBK261141] was run?
A: 97.5385

Q: With `CC(C)(C)c1ccc(-c2cc3ncccc3nc2O)cc1` [CBK081302] as the molecule, how does the “% of control remaining” value read?
A: 95.2023

Q: `CC1(C)Cc2nc(N3CCOCC3)ncc2C(NC(=O)c2cn[nH]c2)C1` (centres unmarked) [CBK307409] was tested. Which “% of control remaining” value did it give?
A: 62.9299

Q: For `CC(C)(C)OC(=O)N1CCC2(CC1)NC(=O)c1cc(-c3cccc4ncccc34)ccc1O2` [CBK083674], which “% of control remaining” value is on record?
A: 89.8179

Q: How did the “% of control remaining” value turn out when `C=CCN1C(=O)C2(CC(=O)N(C)C2=O)c2ccccc21` (centres unmarked) [CBK075137] was run?
A: 76.0812

Q: With `O=C(Nc1nnc(-c2ccccc2)o1)c1ccc2ncsc2c1` [CBK287598] as the molecule, how does the “% of control remaining” value read?
A: 105.004

Q: With `CCNC(=O)NC(=O)C1CCN(CCc2ccc(O)c(OC)c2)CC1` [CBK035184] as the molecule, how does the “% of control remaining” value read?
A: 99.9355

Q: How did the “% of control remaining” value turn out when `Cc1ccc(S(=O)(=O)NC(=O)NCCCCNC(=O)NS(=O)(=O)c2ccc(C)cc2)cc1` [CBK296078] was run?
A: 98.6827

Q: With `CCCc1[nH]nc(O)c1Cc1ccc(C(F)(F)F)cc1` [CBK075014] as the molecule, how does the “% of control remaining” value read?
A: 79.5634

Q: With `CCCc1[nH]nc(O)c1C(=O)c1c(F)cccc1Cl` [CBK103524] as the molecule, how does the “% of control remaining” value read?
A: 66.981

Q: With `CC1Cc2cc(C(=O)C3=C(O)C(=O)N(Cc4ccco4)C3c3cccnc3)ccc2O1` (centres unmarked) [CBK266236] as the molecule, how does the “% of control remaining” value read?
A: 105.035

Q: With `COc1c(C)cc(-c2ncnc(C)c2C)cc1C` [CBK306884] as the molecule, how does the “% of control remaining” value read?
A: 80.6932

Q: How did the “% of control remaining” value turn out when `Cc1ccc(OCc2ccccc2)c(C(CCN(C(C)C)C(C)C)c2ccccc2)c1` (centres unmarked) [CBK017906] was run?
A: 39.3016

Q: With `O=C(CS(=O)(=O)Cc1ccccc1)Nc1ccc(S(=O)(=O)N2CCCCCC2)cc1` [CBK266653] as the molecule, how does the “% of control remaining” value read?
A: 119.276

Q: `O=C(CSc1nc(Nc2ccccc2)nc(N2CCOCC2)n1)N1CCN(c2ccccc2)CC1` [CBK269078] was tested. Which “% of control remaining” value did it give?
A: 101.685

Q: How did the “% of control remaining” value turn out when `CCN1CC2(CCC1=O)CCN(Cc1nnc(-c3cccnc3)o1)CC2` [CBK307137] was run?
A: 46.357

Q: For `Cc1c(F)cccc1CNC1CCC(NC(=O)OC(C)(C)C)CC1` (centres unmarked) [CBK056691], which “% of control remaining” value is on record?
A: 105.96

Q: Which “% of control remaining” value does the source give for `Nc1nnc2c(C(F)(F)F)nc3ccccc3n12` [CBK021345] here?
A: 54.8047

Q: How did the “% of control remaining” value turn out when `Cc1ccc(OC(=O)c2cc(Cl)cnc2Cl)cc1` [CBK090321] was run?
A: 47.3742

Q: `O=C(c1n[nH]cc1Cl)N1CCCC(c2cc3ccccc3cn2)C1` (centres unmarked) [CBK285062] was tested. Which “% of control remaining” value did it give?
A: 109.192

Q: How did the “% of control remaining” value turn out when `CS(=O)(=O)CCNC(=O)c1cnc(-c2ccc(F)cc2)c(-c2cccnc2)c1` [CBK038066] was run?
A: 87.9448

Q: `Cc1cc(C(C)(C)C)cc(S(=O)(=O)Nc2ccc(C(=O)O)c(O)c2)c1C` [CBK299820] was tested. Which “% of control remaining” value did it give?
A: 98.0998

Q: How did the “% of control remaining” value turn out when `COC(=O)c1ccc(SCc2nc(N3CCOCC3)c3c(c2C#N)CC(C)(C)OC3)o1` [CBK019077] was run?
A: 117.768

Q: How did the “% of control remaining” value turn out when `O=C(NC(c1ccccc1)c1ccco1)C1CCN(C(=O)CCC2CCCC2)CC1` (centres unmarked) [CBK059887] was run?
A: 115.059

Q: Which “% of control remaining” value does the source give for `O=C(O)CCCNC(=O)c1ccncc1` [CBK261146] here?
A: 99.2383

Q: Which “% of control remaining” value does the source give for `COc1cc2ccccc2cc1C(=O)Nc1nnc(-c2ccncc2)o1` [CBK287432] here?
A: 78.5975

Q: For `COC(C)c1nc(C)c(C(=O)NC2CCCN(c3ccn(C)n3)C2=O)s1` (centres unmarked) [CBK305454], which “% of control remaining” value is on record?
A: 50.7252

Q: For `CCCCc1nccc(-c2ccc(OCC)c(C(=O)O)c2)n1` [CBK307429], which “% of control remaining” value is on record?
A: 66.7247

Q: For `NC(=O)c1c(NC(=O)c2ccc(COc3cc(Cl)ccc3Cl)o2)sc2c1CCCC2` [CBK265775], which “% of control remaining” value is on record?
A: 87.7346

Q: With `Cn1c(CSc2nc3sc4c(c3c(=O)[nH]2)CCCC4)nnc1SC/C=C/c1ccccc1` [CBK264428] as the molecule, how does the “% of control remaining” value read?
A: 96.6023

Q: With `NC(=O)c1c(NC(=O)C2CC(=O)OC23CCCCC3)sc2c1CCCCC2` (centres unmarked) [CBK264189] as the molecule, how does the “% of control remaining” value read?
A: 110.446

Q: Which “% of control remaining” value does the source give for `Cc1c(C)n(Cc2ccco2)c2ncnc(N3CCC(C(=O)O)CC3)c12` [CBK307599] here?
A: 84.9701

Q: Which “% of control remaining” value does the source give for `CN(CC1CCCCC1)C(=O)c1cc2ccsc2[nH]1` [CBK304518] here?
A: 73.1689

Q: With `CN(C(=O)C1CCCO1)c1nc2c(s1)CCc1occc1-2` (centres unmarked) [CBK283483] as the molecule, how does the “% of control remaining” value read?
A: 75.4948

Q: How did the “% of control remaining” value turn out when `CC(=O)Nc1ccc(-c2ccc(C(=O)N3CCN(C(=O)N4CCCC4)CC3)cn2)cc1` [CBK160187] was run?
A: 73.5656

Q: `c1cncc(-c2cn3ccnc3c(NC3CCCCC3)n2)c1` [CBK093606] was tested. Which “% of control remaining” value did it give?
A: 104.627

Q: `Cc1cc(Cc2ccccc2F)cc(C2CCN(C(=O)c3nc4ccc(F)cc4[nH]3)CC2)n1` [CBK285932] was tested. Which “% of control remaining” value did it give?
A: 110.708

Q: `CC(C)Cn1cnc(S(=O)(=O)N2CCC(OCc3ccncc3)C2)c1` (centres unmarked) [CBK305456] was tested. Which “% of control remaining” value did it give?
A: 35.8094

Q: Which “% of control remaining” value does the source give for `N#C/C(=C/c1cn(CC(=O)O)c2ccccc12)c1ccc(C(=O)O)cc1` [CBK268977] here?
A: 111.819

Q: `Cn1cccc1C(=O)NCc1ccccc1OC1CCNC1` (centres unmarked) [CBK029463T] was tested. Which “% of control remaining” value did it give?
A: 101.238

Q: Which “% of control remaining” value does the source give for `CC1(C)COC(CCN2CCN(c3ccc(F)cc3)CC2)c2ccccc21` (centres unmarked) [CBK024080C] here?
A: 65.614

Q: Which “% of control remaining” value does the source give for `Cc1cc(S(=O)(=O)N(c2ccc(C(C)(C)C)cc2)C2CCNCC2)c(C)s1` [CBK165075T] here?
A: 11.7808

Q: With `c1ccc2[nH]c(CCSCCc3nc4ccccc4[nH]3)nc2c1` [CBK023949] as the molecule, how does the “% of control remaining” value read?
A: 86.4026

Q: With `Cn1cc(C(c2ccccc2OCC(=O)O)c2cn(C)c3ccccc23)c2ccccc21` [CBK266410] as the molecule, how does the “% of control remaining” value read?
A: 132.392

Q: Which “% of control remaining” value does the source give for `O=C(Nc1ccc(Cl)cc1)Nc1cc(S(=O)(=O)N2CCCC2)ccc1Cl` [CBK266122] here?
A: 100.582

Q: `O=C(COc1ccc2ccccc2c1)NCCN1CCOCC1` [CBK265444] was tested. Which “% of control remaining” value did it give?
A: 84.4171

Q: With `O=C(NCc1cccc2ccccc12)C1(c2ccccc2)CCCC1` [CBK149534] as the molecule, how does the “% of control remaining” value read?
A: 110.881

Q: With `CN1CCN([C@H]2[C@@H]3OC[C@@H](O3)[C@@H](NCc3ccc(N(C)C)cc3)[C@@H]2O)CC1` [CBK288824] as the molecule, how does the “% of control remaining” value read?
A: 112.005

Q: For `NC(=S)c1c(Cl)cc(C(F)(F)F)cc1Cl` [CBK011349], which “% of control remaining” value is on record?
A: 11.1295
